Measurements as given in patent US9867795B2, “Nitrated lipids and methods of making and using thereof” (The UAB Research Foundation, priority 2004, dated 2018).

How the values were obtained:
[1] = molecular target: T1, hPPARγ (Homo sapiens, UniProt P37231); assay: CV-1 PPRE×3 TK-Luciferase transient transfection assay; type: cell-based; settings: PPRE reporter, CV-1 cells, P≦0.05
T1 construct: For assessing full-length PPAR receptors, CV-1 cells were transiently co-transfected; expressed in transfected cells; host or cells: CV-1 cells
T1 sequence (P37231 1-505): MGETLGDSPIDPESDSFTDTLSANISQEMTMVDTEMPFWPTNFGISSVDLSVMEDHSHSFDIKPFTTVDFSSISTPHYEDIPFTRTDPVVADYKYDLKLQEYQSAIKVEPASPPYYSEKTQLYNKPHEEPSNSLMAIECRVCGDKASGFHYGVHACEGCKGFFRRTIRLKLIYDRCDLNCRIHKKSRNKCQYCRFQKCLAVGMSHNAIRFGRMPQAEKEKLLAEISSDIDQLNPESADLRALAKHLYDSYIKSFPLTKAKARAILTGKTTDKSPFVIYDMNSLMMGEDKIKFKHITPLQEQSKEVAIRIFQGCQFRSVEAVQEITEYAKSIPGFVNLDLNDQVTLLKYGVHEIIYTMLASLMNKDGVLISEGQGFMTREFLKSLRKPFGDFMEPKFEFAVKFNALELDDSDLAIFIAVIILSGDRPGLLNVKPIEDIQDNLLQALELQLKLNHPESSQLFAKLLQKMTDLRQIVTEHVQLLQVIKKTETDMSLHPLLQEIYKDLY
Source text: Cell Transient Transfection Assay. […] Then, cells were transiently co-transfected with a plasmid containing the luciferase gene under regulation by four Gal4 DNA binding elements (UASG×4 TK-Luciferase, a gift from Dr. Ronald M. Evans), in concert with plasmids containing the ligand binding domain for the different nuclear receptors fused to the Gal4 DNA binding domain. For assessing full-length PPAR receptors, CV-1 cells were transiently co-transfected with a plasmid containing the luciferase gene under the control of three tandem PPAR response elements (PPRE) (PPRE×3 TK-Luciferase) and hPPARγ, hPPARα or hPPARδ expression plasmids, respectively. In all cases, fluorescence protein (GFP) expression plasmid was co-transfected as the control for the transfection efficiency. Twenty-four hours after the transfection, cells were cultured for another 24 hours in Optium-MEM (Invitrogen, Carlsbad, Calif.). Then, cells were treated with different compounds as indicated in figures for 24 hours in Optium-MEM. Reporter luciferase assay kits from Promega (Madison, Wis.) were used to measure the luciferase activity according to the manufacturer's instructions with a luminometer (Victor II, Perkin-Elmer). […]
PPAR transient transfection assay. […] In all cases, fluorescence protein (GFP) expression plasmid was co-transfected as the control for transfection efficiency. […]

[2] = molecular target: T2, PPARδ ligand binding domain (Homo sapiens, UniProt Q03181); assay: CV-1 Gal4 ligand binding domain luciferase reporter assay; type: cell-based; settings: LNO2 1 μM; CV-1 cells
T2 construct: expressed in transfected cells; host or cells: CV-1 cells
T2 sequence (Q03181 211-439 limits assumed): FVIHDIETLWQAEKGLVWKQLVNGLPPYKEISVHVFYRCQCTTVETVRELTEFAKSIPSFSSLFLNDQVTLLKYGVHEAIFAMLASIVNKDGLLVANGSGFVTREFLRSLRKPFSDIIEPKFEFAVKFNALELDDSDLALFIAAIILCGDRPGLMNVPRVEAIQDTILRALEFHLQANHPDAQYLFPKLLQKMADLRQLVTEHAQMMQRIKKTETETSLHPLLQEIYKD
Procedure: (§1) Cell Transient Transfection Assay. CV-1 cells from ATCC (Manassas, Va.) were grown to ˜85% confluence in DMEM/F12 supplemented with 10% FBS, 1% penicillin-streptomycin. Then, cells were transiently co-transfected with a plasmid containing the luciferase gene under regulation by four Gal4 DNA binding elements (UASG×4 TK-Luciferase, a gift from Dr. Ronald M. Evans), in concert with plasmids containing the ligand binding domain for the different nuclear receptors fused to the Gal4 DNA binding domain. For assessing full-length PPAR receptors, CV-1 cells were transiently co-transfected with a plasmid containing the luciferase gene under the control of three tandem PPAR response elements (PPRE) (PPRE×3 TK-Luciferase) and hPPARγ, hPPARα or hPPARδ expression plasmids, respectively. In all cases, fluorescence protein (GFP) expression plasmid was co-transfected as the control for the transfection efficiency. Twenty-four hours after the transfection, cells were cultured for another 24 hours in Optium-MEM (Invitrogen, Carlsbad, Calif.). Then, cells were treated with different compounds as indicated in figures for 24 hours in Optium-MEM. Reporter luciferase assay kits from Promega (Madison, Wis.) were used to measure the luciferase activity according to the manufacturer's instructions with a luminometer (Victor II, Perkin-Elmer). Luciferase activity was normalized by GFP units. Each condition was performed at least in triplicates in each experiment.

[3] = molecular target: T3, glucocorticoid receptor (GR) (Homo sapiens, UniProt P04150); assay: as above; type: cell-based; settings: LNO2 1 μM; CV-1 cells
T3 construct: expressed in transfected cells; host or cells: CV-1 cells
T3 sequence (P04150 524-758 limits assumed): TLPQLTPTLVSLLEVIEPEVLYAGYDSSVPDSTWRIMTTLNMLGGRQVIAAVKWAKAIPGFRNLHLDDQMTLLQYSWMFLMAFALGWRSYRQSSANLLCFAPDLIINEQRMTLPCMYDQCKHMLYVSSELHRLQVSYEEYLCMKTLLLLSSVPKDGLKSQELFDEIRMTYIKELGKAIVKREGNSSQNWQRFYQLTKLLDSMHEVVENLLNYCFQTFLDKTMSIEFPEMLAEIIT
Procedure: as §1

[4] = molecular target: T4, PPARα ligand binding domain (Homo sapiens, UniProt Q07869); assay: as above; type: cell-based; settings: LNO2 1 μM; CV-1 cells
T4 construct: expressed in transfected cells; host or cells: CV-1 cells
T4 sequence (Q07869 239-466 limits assumed): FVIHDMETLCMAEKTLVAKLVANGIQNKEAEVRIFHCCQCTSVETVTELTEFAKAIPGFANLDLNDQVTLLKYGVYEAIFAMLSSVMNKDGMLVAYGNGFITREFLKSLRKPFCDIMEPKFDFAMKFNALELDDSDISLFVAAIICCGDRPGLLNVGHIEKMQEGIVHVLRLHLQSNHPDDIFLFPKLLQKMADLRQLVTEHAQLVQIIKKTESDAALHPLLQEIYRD
Procedure: as §1

[5] = test system: mouse RAW264.7 macrophages; assay: CD36 expression in macrophages (immunoblot, real-time PCR)

Row | Substance | concentration at which PPARγ activation is significantly different from vehicle [1] | activation of PPARδ (Gal4 LBD reporter) [2] | GR receptor activation [3] | activation of PPARα (Gal4 LBD reporter) [4] | CD36 receptor protein expression ([5]; 16 hours treatment, immunoblot) | CD36 mRNA expression ([5]; quantitative real-time PCR)
1 | 9- and 10-nitro-9-cis-octadecenoic acid [OA-NO2] | 100 nM |  |  |  |  | 
2 | 10-nitro-9,12-octadecadienoic acid and 12-nitro-9,12-octadecadienoic acid [LNO2] |  | 221% | no impact | 325% | induced greater CD36 receptor protein expression than an equivalent Rosiglitazone concentration | dose-dependent increase in CD36 mRNA expression
